Where a chain is given by its changes, count along the chain named. This is one part of the list.
B1: UGAGGAU (DNA:RNA)
RNA: GGGAGACCGGAAUUCAGAUUGUCCUGAGGAUUUAAAUCCCGUCGUAGCCACCA
DNA 1: CAATCTGAATTCCGGTCTCCC
DNA 2: TGGTGGCTACGACGGGATT
B2: UAUUGGG (DNA:RNA)
RNA: B1 RNA with G26A, A27U, G28U, A30G, U31G
DNA 1: CAATCTGAATTCCGGTCTCCC
DNA 2: TGGTGGCTACGACGGGATT
B3: UCUCUUU (DNA:RNA)
RNA: B1 RNA with G26C, A27U, G28C, G29U, A30U
DNA 1: CAATCTGAATTCCGGTCTCCC
DNA 2: TGGTGGCTACGACGGGATT
B4: AGAGUCG (DNA:RNA)
RNA: B1 RNA with U25A, G29U, A30C, U31G
DNA 1: CAATCTGAATTCCGGTCTCCC
DNA 2: TGGTGGCTACGACGGGATT
B5: UAAUUGA (DNA:RNA)
RNA: B1 RNA with G26A, G28U, G29U, A30G, U31A
DNA 1: CAATCTGAATTCCGGTCTCCC
DNA 2: TGGTGGCTACGACGGGATT
B6: AUAGCCC (DNA:RNA)
RNA: B1 RNA with U25A, G26U, G29C, A30C, U31C
DNA 1: CAATCTGAATTCCGGTCTCCC
DNA 2: TGGTGGCTACGACGGGATT
B7: CUGAGUG (DNA:RNA)
RNA: B1 RNA with U25C, G26U, A27G, G28A, A30U, U31G
DNA 1: CAATCTGAATTCCGGTCTCCC
DNA 2: TGGTGGCTACGACGGGATT
B8: ACACUAU (DNA:RNA)
RNA: B1 RNA with U25A, G26C, G28C, G29U
DNA 1: CAATCTGAATTCCGGTCTCCC
DNA 2: TGGTGGCTACGACGGGATT
B9: AAAACUU (DNA:RNA)
RNA: B1 RNA with U25A, G26A, G28A, G29C, A30U
DNA 1: CAATCTGAATTCCGGTCTCCC
DNA 2: TGGTGGCTACGACGGGATT
B10: CCGUACC (DNA:RNA)
RNA: GGGAGACCGGAAUUCAGAUUGUCCCCGUACCUUAAAUCCCGUCGUAGCCACCA
DNA 1: CAATCTGAATTCCGGTCTCCC
DNA 2: TGGTGGCTACGACGGGATT
B11: CCAAUGU (DNA:RNA)
RNA: B10 RNA with G27A, U28A, A29U, C30G, C31U
DNA 1: CAATCTGAATTCCGGTCTCCC
DNA 2: TGGTGGCTACGACGGGATT
B12: GCCGAUC (DNA:RNA)
RNA: B10 RNA with C25G, G27C, U28G, C30U
DNA 1: CAATCTGAATTCCGGTCTCCC
DNA 2: TGGTGGCTACGACGGGATT
B13: AACCUGC (DNA:RNA)
RNA: B10 RNA with C25A, C26A, G27C, U28C, A29U, C30G
DNA 1: CAATCTGAATTCCGGTCTCCC
DNA 2: TGGTGGCTACGACGGGATT
B14: GUCAACA (DNA:RNA)
RNA: B10 RNA with C25G, C26U, G27C, U28A, C31A
DNA 1: CAATCTGAATTCCGGTCTCCC
DNA 2: TGGTGGCTACGACGGGATT
B15: UAGUCGA (DNA:RNA)
RNA: B10 RNA with C25U, C26A, A29C, C30G, C31A
DNA 1: CAATCTGAATTCCGGTCTCCC
DNA 2: TGGTGGCTACGACGGGATT
B16: GUGAAAG (DNA:RNA)
RNA: B10 RNA with C25G, C26U, U28A, C30A, C31G
DNA 1: CAATCTGAATTCCGGTCTCCC
DNA 2: TGGTGGCTACGACGGGATT
B17: UUACGAC (DNA:RNA)
RNA: B1 RNA with G26U, G28C, U31C
DNA 1: CAATCTGAATTCCGGTCTCCC
DNA 2: TGGTGGCTACGACGGGATT
B18: CAUAAUC (DNA:RNA)
RNA: B10 RNA with C26A, G27U, U28A, C30U
DNA 1: CAATCTGAATTCCGGTCTCCC
DNA 2: TGGTGGCTACGACGGGATT
B19: UGAAUUA (DNA:RNA)
RNA: B1 RNA with G28A, G29U, A30U, U31A
DNA 1: CAATCTGAATTCCGGTCTCCC
DNA 2: TGGTGGCTACGACGGGATT
B20: GUUCUGA (DNA:RNA)
RNA: GGGAGACCGGAAUUCAGAUUGUCCGUUCUGAUUAAAUCCCGUCGUAGCCACCA
DNA 1: CAATCTGAATTCCGGTCTCCC
DNA 2: TGGTGGCTACGACGGGATT
B21: UGGCAAC (DNA:RNA)
RNA: B10 RNA with C25U, C26G, U28C, C30A
DNA 1: CAATCTGAATTCCGGTCTCCC
DNA 2: TGGTGGCTACGACGGGATT
B22: CAGUAUC (DNA:RNA)
RNA: B10 RNA with C26A, C30U
DNA 1: CAATCTGAATTCCGGTCTCCC
DNA 2: TGGTGGCTACGACGGGATT
B23: GAAUUAG (DNA:RNA)
RNA: B20 RNA with U26A, U27A, C28U, G30A, A31G
DNA 1: CAATCTGAATTCCGGTCTCCC
DNA 2: TGGTGGCTACGACGGGATT
B24: AGGCACU (DNA:RNA)
RNA: B10 RNA with C25A, C26G, U28C, C31U
DNA 1: CAATCTGAATTCCGGTCTCCC
DNA 2: TGGTGGCTACGACGGGATT
B25: CCAAUUC (DNA:RNA)
RNA: B10 RNA with G27A, U28A, A29U, C30U
DNA 1: CAATCTGAATTCCGGTCTCCC
DNA 2: TGGTGGCTACGACGGGATT
B26: UAGCGAA (DNA:RNA)
RNA: B1 RNA with G26A, A27G, G28C, U31A
DNA 1: CAATCTGAATTCCGGTCTCCC
DNA 2: TGGTGGCTACGACGGGATT
B27: CGUAGUA (DNA:RNA)
RNA: B20 RNA with G25C, U26G, C28A, U29G, G30U
DNA 1: CAATCTGAATTCCGGTCTCCC
DNA 2: TGGTGGCTACGACGGGATT
B28: AUGGGCC (DNA:RNA)
RNA: B10 RNA with C25A, C26U, U28G, A29G
DNA 1: CAATCTGAATTCCGGTCTCCC
DNA 2: TGGTGGCTACGACGGGATT
B29: AAGCGGU (DNA:RNA)
RNA: B20 RNA with G25A, U26A, U27G, U29G, A31U
DNA 1: CAATCTGAATTCCGGTCTCCC
DNA 2: TGGTGGCTACGACGGGATT
B30: GGAGAGU (DNA:RNA)
RNA: B1 RNA with U25G, G29A, A30G
DNA 1: CAATCTGAATTCCGGTCTCCC
DNA 2: TGGTGGCTACGACGGGATT
B31: UCUGUUU (DNA:RNA)
RNA: B1 RNA with G26C, A27U, G29U, A30U
DNA 1: CAATCTGAATTCCGGTCTCCC
DNA 2: TGGTGGCTACGACGGGATT

The binders below were run against T1, RBFOX1 RRM RbFoxmut (Fox-RRM*) (Homo sapiens, UniProt Q9NWB1 109-208, R118D;E147R;N151S;E152T) (assay: EMSA; HiTS-Eq, 1 nM pool, 10 min; buffer printed only for the single-RNA assays: 10 mM Tris pH 7.5, 150 mM NaCl, 3.4 mM EDTA, 0.001% NP-40, 30 C). Settings: tags: His6 N-terminal (pET28a); label: 5' 32P.
T1 sequence: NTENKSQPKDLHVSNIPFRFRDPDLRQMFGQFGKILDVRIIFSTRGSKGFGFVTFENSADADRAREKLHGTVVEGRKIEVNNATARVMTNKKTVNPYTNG
Outline: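 Purified RbFox RRM (wild type or mutant) was equilibrated for 10 min in 50 µL with 1 nM of a 5′-radiolabelled pool of RNA with 7 randomized nucleotides, its flanks annealed to DNA oligonucleotides, across increasing protein concentrations. Free RNA was separated by 8% native PAGE, excised, reverse-transcribed, PCR-barcoded and sequenced on an Illumina HiSeq 2500. Relative association constants came from read-count changes of each variant against the control reaction, normalised to the cognate motif.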
With B1 the binding signal was 0.0968 KA relative to UGCAUGU. For B2, the binding signal was 0.102 KA relative to UGCAUGU. For B3, the binding signal was 0.0529 KA relative to UGCAUGU. With B4 the binding signal was 0.11 KA relative to UGCAUGU. With B5 the binding signal was 0.0673 KA relative to UGCAUGU. B6 was tested, and the binding signal was 0.0854 KA relative to UGCAUGU. With B7 the binding signal was 0.142 KA relative to UGCAUGU. With B8 the binding signal was 0.0878 KA relative to UGCAUGU. For B9, the binding signal was 0.0794 KA relative to UGCAUGU. With B10 the binding signal was 0.0822 KA relative to UGCAUGU. In the case of B11, the binding signal is reported as 0.102 KA relative to UGCAUGU. B12 was tested, and the binding signal was 0.0691 KA relative to UGCAUGU. B13 was tested, and the binding signal was 0.0563 KA relative to UGCAUGU. B14 was tested, and the binding signal was 0.0755 KA relative to UGCAUGU. With B15 the binding signal was 0.0897 KA relative to UGCAUGU. In the case of B16, the binding signal is reported as 0.106 KA relative to UGCAUGU. B17 was tested, and the binding signal was 0.0702 KA relative to UGCAUGU. In the case of B18, the binding signal is reported as 0.0533 KA relative to UGCAUGU. In the case of B19, the binding signal is reported as 0.0758 KA relative to UGCAUGU. B20 was tested, and the binding signal was 0.11 KA relative to UGCAUGU. For B21, the binding signal was 0.05 KA relative to UGCAUGU. B22 was tested, and the binding signal was 0.177 KA relative to UGCAUGU. With B23 the binding signal was 0.102 KA relative to UGCAUGU. For B24, the binding signal was 0.0503 KA relative to UGCAUGU. B25 was tested, and the binding signal was 0.0861 KA relative to UGCAUGU. For B26, the binding signal was 0.0975 KA relative to UGCAUGU. For B27, the binding signal was 0.173 KA relative to UGCAUGU. For B28, the binding signal was 0.259 KA relative to UGCAUGU. For B29, the binding signal was 0.101 KA relative to UGCAUGU. In the case of B30, the binding signal is reported as 0.0935 KA relative to UGCAUGU. For B31, the binding signal was 0.0825 KA relative to UGCAUGU.

Reference: paper PMC9911399, “Two distinct binding modes provide the RNA-binding protein RbFox with extraordinary sequence specificity”
